Molecules are shown by their SMILES. In all, about 110,000 compounds were measured (“z-score”: median about -0.1, highest 2% from about 2 on). Some of the results follow. Activity calls are given as the source filed them.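 The calls were made as follows: active = z-score in the third read window above 3 or below -3; inactive = the rest.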

For this experiment, the target named is Metabotropic glutamate receptor 8 (Rattus norvegicus) (UniProt P70579). Description: mGluR8 Gi/Go-coupled signaling modulation – cell-based, rat, thallium flux, HTS, primary screen (AID 488969). The following applies: HEK293 rat mGluR8, GIRK (G protein-gated inwardly rectifying potassium channel) thallium flux, FluoZin2; at 10 µM; stronger effect = higher value; submaximal glutamate (EC20) added with thallium.
Chain of UniProt P70579 (P70579 whole entry, looked up): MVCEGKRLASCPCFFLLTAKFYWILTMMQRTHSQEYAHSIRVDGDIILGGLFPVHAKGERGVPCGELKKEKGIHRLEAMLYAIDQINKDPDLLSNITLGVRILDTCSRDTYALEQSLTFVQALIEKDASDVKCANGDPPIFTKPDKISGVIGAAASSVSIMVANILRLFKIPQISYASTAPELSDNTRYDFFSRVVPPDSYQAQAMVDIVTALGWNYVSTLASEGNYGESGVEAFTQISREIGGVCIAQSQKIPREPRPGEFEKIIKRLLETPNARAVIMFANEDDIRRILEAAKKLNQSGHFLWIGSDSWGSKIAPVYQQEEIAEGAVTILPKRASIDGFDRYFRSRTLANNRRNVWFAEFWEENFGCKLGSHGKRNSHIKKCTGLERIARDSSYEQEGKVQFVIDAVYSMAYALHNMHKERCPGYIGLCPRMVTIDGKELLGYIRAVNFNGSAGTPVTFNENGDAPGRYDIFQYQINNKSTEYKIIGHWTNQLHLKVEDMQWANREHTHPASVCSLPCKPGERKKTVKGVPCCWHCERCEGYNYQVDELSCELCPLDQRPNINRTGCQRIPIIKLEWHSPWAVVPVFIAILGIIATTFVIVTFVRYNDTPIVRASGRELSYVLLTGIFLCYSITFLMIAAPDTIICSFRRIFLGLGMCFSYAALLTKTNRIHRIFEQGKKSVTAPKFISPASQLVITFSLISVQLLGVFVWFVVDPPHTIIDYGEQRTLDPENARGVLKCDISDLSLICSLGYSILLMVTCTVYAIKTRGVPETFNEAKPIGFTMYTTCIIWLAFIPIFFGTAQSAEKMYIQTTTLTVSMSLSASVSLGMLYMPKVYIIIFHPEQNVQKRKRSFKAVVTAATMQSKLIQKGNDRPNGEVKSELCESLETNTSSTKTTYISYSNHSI
`O=C1N=c2ccccc2=C1c1[nH]c(=S)[nH]c1O` displayed a z-score of 0.0533.

Molecule `COc1ccccc1-n1cnc2cc(NS(=O)(=O)c3ccccc3)ccc21` yielded a z-score of -0.582.

`O=C(c1sc2ccccc2c1Cl)N(Cc1ccccc1Cl)C1CCS(=O)(=O)C1` (centres undefined) showed a z-score of 0.26.

The molecule `CCOC(=O)N1CCN(S(=O)(=O)c2cc(Cl)c(OC)cc2Cl)CC1` had a z-score of -0.748.

`Cc1ccc(OCCOC(=O)Nc2ccccc2)cc1`: the z-score is -0.215.

Turning to `O=C/C(=C\Nc1ccccn1)c1nc2cc(Cl)ccc2o1`, the z-score worked out at 0.215.

Take `COc1ccc(C)cc1NC(=O)C(OC(=O)c1ccc(Cl)c(S(=O)(=O)N(C)c2ccccc2)c1)c1ccccc1` (centres undefined): the z-score is -0.0112.

For `CCCNC(=O)Cn1cnc2sc(C(=O)Nc3cc(OC)c(OC)c(OC)c3)c(C)c2c1=O`, the z-score was -0.201.

In turn, `O=C(NCc1ccc(Cl)cc1)C(=O)NCC1OCCN1C(=O)c1cccs1` (centres undefined) gave a z-score of -0.152.

With `O=C(NCC(F)(F)F)Nc1cccnc1`, the z-score is -0.185.

The molecule `COc1ccc(S(=O)(=O)N(C)CC(=O)NC2CCCC2)cc1Cl` displayed a z-score of 0.335.

Turning to `CCCS(=O)(=O)c1nc(S(=O)(=O)c2ccc(C)cc2)c(N2CCCC2)s1`, the z-score is -0.157.

The molecule `O=C(COc1ccc(Cl)cc1)NCCSc1ccccc1` showed a z-score of 0.915.

In the case of `Nc1nc2n(n1)C(c1ccccc1Cl)CC(c1ccc(F)cc1)N2` (centres undefined), the z-score was 0.896.

With `Cc1ccc(N2C(=O)C(c3c(C)[nH]n(-c4ccccc4)c3=O)(C(F)(F)F)C3=C2CC(C)(C)CC3=O)cc1` (centres undefined), the z-score is -0.207.

Take `CCCN(CCC)C(=O)c1ccc2c(c1)OCO2`: the z-score is 0.0999.

Molecule `CCCCn1c(=O)[nH]c(=O)c2c1nc(-c1ccsc1)n2Cc1ccccc1` came in with a z-score of -0.249.

With `O=C(Nc1ccccc1)c1cc(N2CCOCC2)nc2ccccc12`, the z-score is -0.137.

Take `CCc1nnc(NC(=O)/C=C/c2ccco2)s1`: the z-score was -0.152.

`COCCSc1ccccc1C(=O)N1CCOCC1` registered a z-score of 0.38.

Molecule `CC1CCN(S(=O)(=O)c2cccc(C(=O)NCc3ccco3)c2)CC1` registered a z-score of -0.129.

`COc1ccc(C(=O)c2coc3ccc(O)c(CN4CCOCC4)c23)cc1` showed a z-score of -0.853.

In turn, `COc1ccccc1CNC(=O)COC(=O)[C@H](Cc1c[nH]c2ccccc12)NC(=O)c1cccs1` gave a z-score of -0.482.

As to `Cc1cc(C)n(-c2ccc(C(=O)OCC(=O)Nc3ccc(S(=O)(=O)N4CCCCC4)cc3)cc2)n1`, the z-score is -0.00692.

In the case of `O=C(COC(=O)c1c2c(nc3ccccc13)CCCC2)c1cccs1`, the z-score was -0.823.

As to `COc1ccc(S(=O)(=O)N(Cc2ccccc2)Cc2nc3ccccc3c(=O)[nH]2)cc1`, the z-score was -0.148.

`COc1cccc(C(=O)CSc2nc3ccccc3n2CC(=O)N(C(C)C)C(C)C)c1`: the z-score was 0.641.

`COc1ccc(NS(=O)(=O)c2cc(OC)ccc2NC(=O)c2cc(C)oc2C)cc1` gave a z-score of -0.812.

On to `c1cc(C2CCCCC2)ccc1Oc1nc(N2CCOCC2)nc(N2CCOCC2)n1`, for which the z-score is -0.518.

The molecule `O=C(O)C1Cc2ccccc2CN1C(=O)c1ccccc1Cl` (centres undefined) gave a z-score of 0.457.

`CN1CCN(c2ccc(C(=O)c3ccc(F)cc3)cc2)CC1` registered a z-score of -0.0611.

`CC(C)C(=O)Nc1ccc(NC(=O)c2ccccn2)cn1` gave a z-score of 0.221.

Molecule `C=CCn1c(SCCCCCC)nc(O)cc1=O` registered a z-score of -0.819.

The molecule `COc1cccc(C(=O)CSc2nc3cccnc3n2C)c1` had a z-score of 1.24.

In turn, `O=C(O)c1cc(Cl)c(Cl)cc1C(=O)Nc1cccc2ncccc12` registered a z-score of 0.0614.

`COC(=O)CC1C(=O)NCCN1C(=O)NC1CCCCC1` (centres undefined) gave a z-score of -0.062.

Consider `CCOC(=O)c1cccc(NC(=O)CSc2nnc(C3CCCCC3)n2C)c1`, for which the z-score was active: -3.49.

As for `COc1ccc(C/C(N)=N/OC(=O)Cc2ccccc2)cc1`, the z-score was -0.0536.

`CCN(CC)C(=O)CSc1nc2ccccc2c(=O)n1OC` had a z-score of -0.225.

Take `CCOc1ccc(-n2c(SCc3cc(=O)oc4cc(C)c(C(C)C)cc34)nnc2-c2cccnc2)cc1`: the z-score is -0.176.

Molecule `COC(=O)C1=NN(N=O)C2(CC(=O)N(c3cc(C)cc(C)c3)C2=O)C1` (centres undefined) registered a z-score of -0.194.

In turn, `COc1ccc(S(=O)(=O)Cc2ccc(C(=O)N3CCN(c4cccc(C)c4)C(C)C3)o2)cc1` (centres undefined) returned a z-score of -0.198.

For `Cc1ccc(-n2c(SCC(=O)N3CCOCC3)nnc2-c2cccnc2)cc1C`, the z-score was -1.4.

For `Cc1ccc(-c2cc(C(=O)Nc3cnn(C45CC6CC(CC(C6)C4)C5)c3)no2)cc1`, the z-score is -0.401.

Consider `Cc1c(/C=N/NC(=O)CNc2ccccc2)c2ccccn2c1C(=O)c1ccncc1`, for which the z-score was -0.258.

`COc1cc(NC(=O)Cc2cccs2)cc(OC)c1`: the z-score was -0.0563.

On to `Fc1c(F)c(F)c(N/N=C/c2c[nH]c3ccccc23)c(F)c1F`, for which the z-score came to 0.0396.

In turn, `Cc1ccc2c(C(=O)CN3CCCCC3CCO)c(C)[nH]c2c1` (centres undefined) showed a z-score of 0.306.

`C/C(N)=C(/C#N)C(=O)CSc1nc2ccccc2[nH]1` returned a z-score of -0.0988.

For the molecule `Cc1cccc(NC(=O)COC(=O)Cc2cccc(C(F)(F)F)c2)c1C`, the z-score is -0.291.

Take `O=C(O)c1cccc2c1C(=O)N(C1CCCCC1)C2`: the z-score is -0.194.

In the case of `CS(=O)(=O)Nc1ccc(C2=NN(C(=O)c3ccco3)C(c3ccccc3)C2)cc1` (centres undefined), the z-score is -0.461.

Molecule `Cc1ccc(NC(=O)C2CCCN2C(=O)Oc2ccccc2)cc1` (centres undefined) displayed a z-score of 0.00428.

`COc1ccccc1Cn1c(=S)[nH]c2cc(C(=O)NCCN3CCOCC3)ccc2c1=O` showed a z-score of -0.551.

As for `O=[N+]([O-])c1ccc(N/N=C/c2c[nH]c3ccccc23)c(S(=O)(=O)Nc2ccc(Cl)cc2)c1`, the z-score is -0.16.

Molecule `CCc1nn(C)c(-c2n[nH]c(=S)n2N)c1Cl` showed a z-score of -0.146.

In turn, `Cc1nc2sc(C(c3cccc(F)c3)N3CCOCC3)c(O)n2n1` (centres undefined) came in with a z-score of -0.156.

Molecule `CCC(c1nnnn1Cc1ccccc1)N(Cc1ccco1)Cc1cc2cc(OC)ccc2[nH]c1=O` (centres undefined) returned a z-score of -0.0441.

Molecule `Cc1c(Cl)cccc1NC(=O)CNC(=O)c1ccccc1F` showed a z-score of -0.197.

Consider `CC1CCCC(NC(=O)CC2Nc3ccccc3NC2=O)C1C` (centres undefined), for which the z-score turned out to be 0.0968.

`Cc1ccc(-c2nc3ccccc3o2)cc1NC(=S)NC(=O)/C=C/c1ccco1` showed a z-score of 0.0248.

In turn, `C=CCc1cccc2cc(C(=O)N3CCN(C(=O)c4ccco4)CC3)c(=O)oc12` came in with a z-score of -0.404.

The molecule `CCCc1nc2ccccc2c(=O)n1/N=C/c1ccc(O)cc1` registered a z-score of 1.56.

Turning to `CC(C)(C)c1ccccc1OCC(=O)NCCC(=O)O`, the z-score is -0.162.

`O=C(CN1C(=O)c2ccccc2S1(=O)=O)Nc1ccc(S(=O)(=O)N2CCCC2)cc1` had a z-score of -0.409.

With `O=C(CCN1C(=O)c2ccccc2S1(=O)=O)NCc1ccco1`, the z-score is 0.0458.

Molecule `Cc1ccccc1-c1nc(-c2ccc(NC(=O)c3ccc4c(c3)OCO4)cc2)no1` had a z-score of -0.00833.

Turning to `CCC(=O)N(CCO)Cc1cc2ccc(C)c(C)c2[nH]c1=O`, the z-score is -0.572.

As for `N#Cc1ccc(Oc2cccnc2)cc1C#N`, the z-score turned out to be 0.83.

Molecule `COc1ccccc1NS(=O)(=O)c1cccc(C(=O)N/N=C(\C)c2ccc3c(c2)OCCO3)c1` gave a z-score of -1.51.

In turn, `N#C/C(=C\c1cccs1)C(=O)NCC1CCCO1` (centres undefined) yielded a z-score of -0.192.

Regarding `CCN1C(=O)/C(=C\N2CCN(c3cccc(Cl)c3)CC2)SC1=S`, the z-score was -0.186.

Consider `Brc1ccc(-c2cn3nc4c(nc3n2)CCCC4)cc1`, for which the z-score is 0.46.

Molecule `COc1ccc(COC(=O)C2=C(C)NC(=O)NC2c2ccc(O)c(OC)c2)cc1` (centres undefined) gave a z-score of -0.122.

The molecule `C/C(CC(=O)Nc1cc(Cl)ccc1Cl)=N\NC(N)=S` showed a z-score of -0.27.

Molecule `Cn1c(=O)c(S(=O)(=O)C(C)(C)C)c(O)c2ccccc21` registered a z-score of -0.724.

Consider `O=C(NCc1ccc(F)cc1)c1ccccc1OCc1ccccc1`, for which the z-score is -0.0481.

For the molecule `CCc1ccc(OCC(=O)Nc2ccc3c(c2)COC3=O)cc1`, the z-score is 0.881.

`CCOC(=O)c1cc(NC(=O)c2cnccn2)cc(C(=O)OCC)c1` came in with a z-score of -0.0722.

`Cc1ccc(CNC(=O)C2(NC(=O)Nc3ccc(C)cc3)CCCCC2)cc1` gave a z-score of -0.292.

Regarding `O=C(c1cccs1)N1CCN(C(=O)C(c2ccccc2)c2ccccc2)CC1`, the z-score was -0.297.

Take `COc1ccc2c(c1)C(c1ccc(N3CCOCC3)cc1)=NNC(c1cccnc1)=N2`: the z-score came to 0.478.

Consider `Cc1nn(CC(=O)NCc2ccccc2Cl)c(C)c1[N+](=O)[O-]`, for which the z-score is -0.117.

With `COc1ccccc1OCCn1c(=O)sc2ccccc21`, the z-score is -0.0836.

For `CCOC(=O)C1CCCN(C(=O)Cn2nc(CC)n3c(cc4sccc43)c2=O)C1` (centres undefined), the z-score was -0.393.

`Cc1ccc(S(=O)(=O)NC2CCCC2)cc1C` gave a z-score of -0.157.

Turning to `COc1ccc(C2=Nn3c(nnc3-c3ccccc3OC)SC2)cc1OC`, the z-score is -1.01.

In the case of `CCOC(=O)C1CCCN(S(=O)(=O)Cc2ccccc2)C1` (centres undefined), the z-score was found to be 0.343.

As to `Cc1ccc(C)c(N2CCN(C(=O)c3csc(C)c3C)CC2)c1`, the z-score was 0.0161.

`CC(=O)c1cc2c(cc1NC(=O)CN1CCCCCCC1)OCO2`: the z-score was -0.185.

Molecule `COc1ccccc1N1CCN(C(=O)CN(Cc2ccc(Cl)cc2)S(C)(=O)=O)CC1` had a z-score of -0.133.

Consider `CC(C)(C)n1nc2c(c1NC(=O)c1cccc(C(F)(F)F)c1)CS(=O)C2` (centres undefined), for which the z-score was found to be 0.115.

As for `CC1CCN(CC(=O)NCc2ccccc2)CC1`, the z-score was -0.0448.

As to `Cc1cccn2cc(CSc3nnc(Nc4ccc(C(C)C)cc4)s3)nc12`, the z-score was -0.709.

`CC(C)Sc1nc2ccccc2n1CC(=O)NCc1ccc2c(c1)OCO2` came in with a z-score of -0.586.

As for `Cc1nn2c(=O)nc3sc4c(c3c2[nH]c1=O)CCCC4`, the z-score was -1.6.

As to `O=C(CN1C(=O)NC2(CCCc3ccccc32)C1=O)NCc1ccco1` (centres undefined), the z-score is -0.227.

As to `O=c1cc(CN2CCN(CCO)CC2)c2cc3c(cc2o1)CCC3`, the z-score came out at 0.804.

As for `Cc1cc(Br)ccc1NC(=S)Nc1cccc([N+](=O)[O-])c1`, the z-score was found to be 0.848.

For `O=C(NN1C(=O)c2ccccc2NC1c1ccccn1)c1ccccc1` (centres undefined), the z-score is -0.346.

For the molecule `CC(C)(C)OC(=O)NCCCCCc1nnc(SCC(N)=O)o1`, the z-score turned out to be 1.62.

In turn, `Cn1c(C(=O)N2CCCC2)cc2c(=O)n(C)c3ccccc3c21` came in with a z-score of -0.844.

With `O=C1C(O)CC2c3ccccc3CC3(CCCC3)N12` (centres undefined), the z-score is -0.202.

Regarding `COc1ccc(-c2noc(CCC(=O)NCCCN3CCC(C)CC3)n2)cc1`, the z-score is -0.0947.

Take `Cc1ccc(C)c(CN2C(=O)C3CCCN3c3ccc(S(=O)(=O)N4CCOCC4)cc32)c1` (centres undefined): the z-score was -0.48.

`O=C(N/N=C/c1ccc([N+](=O)[O-])cc1)c1ccc2nc[nH]c2c1`: the z-score was -0.162.

For the molecule `COc1ccc(C(=O)OCC2CC(c3ccccc3)N(C)O2)cc1` (centres undefined), the z-score amounted to 0.13.

Molecule `Cc1ccc2c(c1)/C(=N/OS(=O)(=O)c1ccccc1)CCS2` displayed a z-score of -0.0781.

Molecule `CC(=O)Oc1ccc(C(=O)[C@H]2[C@H]3C(=O)N(c4ccccc4)C(=O)[C@H]3[C@@H]3C=CC=NN32)cc1` yielded a z-score of -1.36.

For the origin of these results see PubChem BioAssay AID488969 (Vanderbilt High Throughput Screening Facility, 2010).
